Conditions: dark, 40° C.
Method: The irradiated solution was subsequently allowed to sit in a temperature control cell holder in the dark at 40° C. for 1 min before the absorption spectrum of the solution at 40° C. was recorded. The regeneration of each pyridones was monitored by recording change in its λmax as a function of time.
The thermal decomposition of the endoperoxide adducts were expected to follow a first order reaction kinetics. Thus, the integrated rate law is expressed using equations (2) and (3): 1st order; [Endo]t=[Endo]0e^−kt (2) ln [Endo]t−kt=+ln [Endo]0 (3)
The progress of Endoperoxide release reaction was monitored by the increase of the pyridone absorption, thus the concentrations of the endoperoxide at various reaction times can be calculated by equations (4) and (5). [Endo]t=[Endo]0−[Pyridone]t (4) [Pyridone]t=A(pyridone)t/εpyridone (5)

Compound	Half Life Ln (2)/k
CC1=CC2OOC1N(CCC(C)C)C2=O (stereo not drawn) [ENDOPEROXIDE 301C]	Half Life ENDOPEROXIDE 301C Ln (2)/k 6931 s 116 min 1.9 hrs
CC1=CC2OOC1N(CC(C)C)C2=O (stereo not drawn) [ENDOPEROXIDE 401A]	Half Life ENDOPEROXIDE 401A Ln (2)/k 11552 s 193 min 3.2 hrs
COC(=O)CN1C(=O)C2(C)C=CC1OO2 (stereo not drawn) [ENDOPEROXIDE 201B]	Half Life ENDOPEROXIDE 201B Ln (2)/k 34657 s 578 min 9.6 hrs
COC(=O)CN1C(=O)C2OOC1C=C2C (stereo not drawn) [ENDOPEROXIDE 201C]	Half Life ENDOPEROXIDE 201C Ln (2)/k 34657 s 578 min 9.6 hrs
CC1=CC2OOC1C(=O)N2CCC(C)C (stereo not drawn) [ENDOPEROXIDE 301D]	Half Life ENDOPEROXIDE 301D Ln (2)/k 11552 s 193 min 3.2 hrs
COC(=O)CN1C(=O)C2C=CC1(C)OO2 (stereo not drawn) [ENDOPEROXIDE 201E]	Half Life ENDOPEROXIDE 201E Ln (2)/k 23105 s 385 min 6.4 hrs
CC(C)CCN1C(=O)C2(C)C=CC1OO2 (stereo not drawn) [ENDOPEROXIDE 301B]	Half Life ENDOPEROXIDE 301B Ln (2)/k 7702 s 128 min 2.1 hrs
COC(=O)CN1C(=O)C2C=CC1OO2 (stereo not drawn) [ENDOPEROXIDE 201A]	Half Life ENDOPEROXIDE 201A Ln (2)/k 17329 s 289 min 4.8 hrs
COC(=O)CN1C(=O)C2C=C(C)C1OO2 (stereo not drawn) [ENDOPEROXIDE 201D]	Half Life ENDOPEROXIDE 201D Ln (2)/k 34657 s 578 min 9.6 hrs
